Reference: the RNAGym collection of RNA variant scans (doi:10.1093/nar/gkz1192)
The source gives no read counts; variants with many changes may rest on few reads.

B1: CPEB3 Ribozyme (parent)
chain: UAACAGGGGGCCACAGCAGAAGCGUUCACGUCGCAGCCCCUGUCAGAUUCUGGUGAAUCUGCGAAUUCUGCUGUAUAUCUC

Variants of: B1
Assay: self-cleavage, relative activity (ratio to wild type); higher = more cleavage; in vitro, sequencing
In short: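 Libraries of CPEB3 self-cleaving ribozyme mutants came from rounds of error-prone PCR and carried barcodes, which DNA sequencing matched to variants. In vitro transcription used T7 RNA polymerase at 37°C for 5 hours, with a further 15 min in DNase I before EDTA stopped the reaction; the ribozymes cleaved during both steps. The RNA was reverse transcribed with template switching and sequenced on Illumina. Relative activity is the cleaved/total read fraction of a variant divided by that of the unmutated ribozyme, averaged over three batches with at least 5 reads.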

Row | Variant | self-cleavage
1 | A13U U26A U48C U60C U76C | 0.18
2 | A13U C23G U26C A35U A47G U60C A77G | 0.04
3 | A13U C62A U69G | 0.39
4 | C14U A15C U72A | 0.91
5 | C14A A35U U67A G73A | 0.29
6 | C14A U41A U43C | 0.53
7 | A13U U54A G70A U72A | 0.42
8 | A13U C27G A28G | 0.56
9 | A13U U25C U69C | 0.12
10 | A13U U31C U48C U51C | 0.46
11 | A13U C38G U51C U54C U60A A75U U76C | 0.05
12 | C14A U26A U51C U66C | 0.44
13 | C14A A57G A64G | 1.03
14 | A13U U43A A47G A64G U69A | 0.34
15 | C14U A28G A57G U66C | 0.13
16 | A13U U49A U74A U80G | 1.05
17 | C14A U25C U51A A65G U80C | 0.11
18 | A13U C23U C71A | 0.06
19 | A13U C17U A28G U67C U76A | 0.08
20 | A13U U26C A28G U80C | 0.3
21 | A13U U41C U69A | 0.65
22 | C14G A28U U31C A65U U69C | 0.05
23 | A13U U25C G30A U31C C38U U58A | 0.06
24 | A13U C38U U54A | 1.08

Row | Variant | self-cleavage
25 | C14U A15G U66G | 0.51
26 | A13U U31C U48A A57G A75U | 0
27 | A13U U26C C39U A64G U72A | 0.06
28 | A13U U54C A65G | 0.5
29 | A13U U31C A77G | 1.12
30 | A13U C59G U60A A65G U66C U80C | 0.11
31 | C14G C17G A35G U41C | 0.69
32 | A13U G16U C34U | 0.15
33 | C14G U25C A64G | 0.36
34 | A13U U49C A56G | 1.42
35 | A13U C40U U41C | 1.19
36 | C14U A15U U43C U74C | 0.58
37 | A13U U41C U51C | 1.23
38 | C14A A35U U41G A77G | 0.12
39 | A13U U41A A64U | 0.1
40 | A13U G36A A77U | 0.31
41 | A13U U51A U76C | 1.21
42 | A13U G19U U43C | 0.08
43 | C14A U51C U58C U66C U72G | 0.16
44 | C14U A18G U54A A56U | 0.28
45 | A13U U43A A75G | 1.06
46 | A13U C40U A75G | 1.01
47 | C14U A21U G33U U69C A75G | 0.04
48 | C14A U25C C29U U41C U48C A56U U67A | 0.03

Row | Variant | self-cleavage
49 | A13U G30A A35G U51C | 0.17
50 | A13U U43C A77C | 0.75
51 | A13U U67A C71G U72C | 0.27
52 | A13U U31A G33U A57G | 0.09
53 | A13U U41A U48C | 0.19
54 | C14U A21G A47U | 0.62
55 | A13U C34U A35G U80A | 1.17
56 | A13U U51A U72C U78C | 1.23
57 | A13U U43C U54C C62U U78A | 0.14
58 | A13U C14U A20G U58A U67C U72C U74C | 0.23
59 | C14G U31A U60C A65G | 0.13
60 | C14A U69C U74C | 0.65
61 | C14U A21U C32U G55U A77U | 0.05
62 | A13U G22C C44U U69C U78C | 0.12
63 | C14A A20U U26A U31C U41A A56U U60A | 0.04
64 | A13U G22U C37U A45C U54A U66A | 0.07
65 | A13U U49C U58A U76A | 0.2
66 | A13U G22A U43G | 0.2
67 | C14U A15G A20C C23A U54G U58C | 0.04
68 | A13U U41A A56U C79A | 0.2
69 | C14G G42U U72C | 0.35
70 | C14A U31C G63A U72C | 0.62
71 | A13U G16U A18U U67A | 0.08
72 | A13U U31A U43C | 0.37

Row | Variant | self-cleavage
73 | C14A A20U U25C G33A U41A | 0.17
74 | A13U U31C U49C U54C A56G A77G U78C | 0.49
75 | A13U C32A U41A A65G U72G | 0.07
76 | A13U U58C U60A | 0.27
77 | A13U U54C A77G U78C | 0.87
78 | C14A A18G A35G A45G G63C U69C | 1.21
79 | C14U A20G U25C A56U | 0.07
80 | C14A C23U A47U U49A U54C A64U | 0.09
81 | A13U G16U U43A C81U | 0.52
82 | A13U U48C U72C | 0.27
83 | C14A A20G C27A C38U U43A | 0.05
84 | A13U U43A U67A | 0.74
85 | A13U U41A U72C U76A | 0.24
86 | A13U U25C U41C | 0.18
87 | A13U U26C U31C A75G | 0.15
88 | C14G U43C A64U U72C U78C | 0.08
89 | A13U G22A C23G U26C C62U U76C A77G | 0.03
90 | C14U A18C U41C G55A U69C | 0.12
91 | C14U A18G U31C A64G | 0.12
92 | A13U C39A A57U U58A | 0.1
93 | A13U G16U A21G C38A | 0.45
94 | C14A A15G U25C U74C U80A | 0.28
95 | C14G A20C A65G U76C | 0.06
96 | A13U C37A U72A U74A | 0.16

Row | Variant | self-cleavage
97 | A13U U41C U43A U69C | 0.37
98 | A13U G33C A35G C40G U43C U67C | 0.11
99 | C14A A18U A21G U25C U74C U80A | 0.05
100 | C14G A21G G42U U51C U60A | 0.14
101 | C14A A15G U51A | 1.21
102 | A13U U69C G73A | 1.05
103 | C14A A18U C62G U66C U67C | 0.07
104 | A13U G42A C50G U72C | 0.13
105 | A13U U31C C62U U67C | 0.12
106 | A13U U54C U67G | 0.47
107 | C14A U43C U49C G53A A56G U66C U69C | 0.09
108 | C14A U60C U69A | 0.23
109 | A13U U25C A28U A57G U60C | 0.12
110 | C14U A20U G22C U54G | 0.09
111 | A13U C40A A47U U54C | 0.11
112 | A13U U54C U60C | 0.66
113 | A13U U54C U60A | 0.68
114 | C14A A15G U51G U60C | 0.22
115 | A13U U49A A56U G63A A64G | 1.01
116 | A13U U41A A47G A56G U69A | 0.07
117 | A13U U25A A47G U49C G52A G63A | 0.18
118 | A13U U25C A64U | 0.16
119 | A13U G16U A57G U60A U74A | 0.14
120 | C14U A15U C32U U54A U67C | 0.13

Row | Variant | self-cleavage
121 | A13U C14G U26G U41C U54A A56U U69C | 0.04
122 | C14U A18G U25A U26C | 0.07
123 | A13U G24A A45G U51A | 0.09
124 | C14G U49C A65C | 0.07
125 | A13U C14U G16A U26A U72A | 0.16
126 | A13U C39A A64U | 0.14
127 | A13U U25A U76C | 0.43
128 | A13U U51A U72A U80C | 1.14
129 | A13U C29G A65U | 0.23
130 | A13U U31C A47G A64G | 0.45
131 | A13U U58C U60A U72C | 0.2
132 | C14U A15G U60C | 0.41
133 | A13U U43A U60C U66A U80C | 0.21
134 | A13U U43A C50A G52U G63U | 1.29
135 | A13U U25C G46C | 0.14
136 | A13U C29U A56G A57G | 0.07
137 | C14U A20U U43C A64G U67C | 0.07
138 | A13U U26C A35G | 1.1
139 | A13U G19C A21G U26G A35G A77G | 0.04
140 | C14G A20G A47G A57G U60C A64U | 0.03
141 | C14G A21G G33A A35U U72G | 0.12
142 | A13U U41A U78C | 0.19
143 | A13U G16A U58C U66C U72A | 0.38
144 | C14A U25G U43A | 0.15

Row | Variant | self-cleavage
145 | A13U G33U U48C A57G C62U | 0.14
146 | C14U A21G G24A C50A U54A U58C A64C | 0.05
147 | A13U U31A G52A A56U G63A U80C | 0.24
148 | A13U C38U A45G U49C A77U | 0.2
149 | C14G A56C U78C | 0.83
150 | C14A C23U A64U | 0.14
151 | A13U C32A U48A | 0.09
152 | C14U A18G A21G U31C U43C | 0.04
153 | A13U U54A U72A A75G | 1.08
154 | C14A U31C A57G | 0.61
155 | A13U U58C U69C | 0.19
156 | A13U C37U U54G U58A G63U | 0.05
157 | A13U U54C U69A A77G | 0.89
158 | A13U U41A C59A | 0.44
159 | C14U A15U A35G G46U A77C | 0.42
160 | A13U C17A U41C | 0.16
161 | C14U A28C C32G U54C | 0.03
162 | A13U U54C U72A | 0.58
163 | A13U U67A U72C | 0.53
164 | A13U C38U U41A U43C | 0.05
165 | C14A U26C U67C U78C | 0.09
166 | C14G U51A A57U A65U | 0.08
167 | A13U G30A U31C A47C | 0.06
